We go through 42 compounds from patent publication US7619094B2, “Ketoamides with cyclic P4's as inhibitors of NS3 serine protease of hepatitis C virus” (Schering Corporation, priority 2004, dated 2009).

A value given as a limit tells only on which side of the number the result lay.

The assay concerns the target Recombinant heterodimeric HCV NS3/NS4A protease (strain 1a) (Hepatitis C virus genotype 1a, UniProt P27958). Kind of assay: HCV continuous assay (spectrophotometric HCV NS3/NS4A serine protease inhibition assay). Conditions: Table 1; ranges of Ki* values in HCV continuous assay. The class given is biochemical, HCV (strain 1a).
As for `C=CCNC(=O)C(=O)C(CC1CC1)NC(=O)[C@@H]1[C@@H]2[C@H](CN1C(=O)[C@@H](NC(=O)N[C@H](CN1CCCCS1(=O)=O)C(C)(C)C)C(C)(C)C)C2(C)C` (stereo partly drawn) [Compound 5196], the Ki (in general, a measure of affinity in units of concentration, obtained from inhibition or displacement) was not above 50 nM.
The value for `CC(C)(C)[C@H](NC(=O)N[C@H](CN1CCCCS1(=O)=O)C(C)(C)C)C(=O)N1C[C@H]2[C@@H]([C@H]1C(=O)NC(CC1CC1)C(=O)C(N)=O)C2(C)C` (stereo partly drawn) [Compound 5197] was not above 50 nM.
Turning to `C=CCNC(=O)C(=O)C(CCC)NC(=O)[C@@H]1[C@@H]2[C@H](CN1C(=O)[C@@H](NC(=O)N[C@H](CN1CCN(CC3CC3)S1(=O)=O)C(C)(C)C)C1CCCCC1)C2(C)C` (stereo partly drawn) [Compound 5198], the Ki was not above 50 nM.
As for `CC(C)(C)[C@H](NC(=O)N[C@H](CN1CCN(CC2CC2)S1(=O)=O)C(C)(C)C)C(=O)N1C[C@H]2[C@@H]([C@H]1C(=O)NC(CC1CC1)C(=O)C(N)=O)C2(C)C` (stereo partly drawn) [Compound 5199], the figure is not above 50 nM; as for `CCCCC(NC(=O)[C@@H]1[C@@H]2[C@H](CN1C(=O)[C@@H](NC(=O)N[C@H](CN1CCCCS1(=O)=O)C(C)(C)C)C(C)(C)C)C2(C)C)C(=O)C(N)=O` (stereo partly drawn) [Compound 5200], not above 50 nM.
As for `C=CCNC(=O)C(=O)C(CCC)NC(=O)[C@@H]1[C@@H]2[C@H](CN1C(=O)[C@@H](NC(=O)N[C@H](CN1CCN(C(C)=O)S1(=O)=O)C(C)(C)C)C1CCCCC1)C2(C)C` (stereo partly drawn) [Compound 5201], the figure is not above 50 nM; as for `C=CCNC(=O)C(=O)C(CCC)NC(=O)[C@@H]1[C@@H]2[C@H](CN1C(=O)[C@@H](NC(=O)N[C@H](CN1CCN(C(C)=O)S1(=O)=O)C(C)(C)C)C(C)(C)C)C2(C)C` (stereo partly drawn) [Compound 5202], not above 50 nM.
As for `CC(=O)N1CCN(C[C@@H](NC(=O)N[C@H](C(=O)N2C[C@H]3[C@@H]([C@H]2C(=O)NC(CC2CCC2)C(=O)C(N)=O)C3(C)C)C(C)(C)C)C(C)(C)C)S1(=O)=O` (stereo partly drawn) [Compound 5203], the figure is not above 50 nM.
In the case of `C=CCNC(=O)C(=O)C(CCC)NC(=O)[C@@H]1[C@@H]2[C@H](CN1C(=O)[C@@H](NC(=O)N[C@H](CN1CCN(C(C)C)S1(=O)=O)C(C)(C)C)C1CCCCC1)C2(C)C` (stereo partly drawn) [Compound 5204], the Ki was not above 50 nM.
With `C=CCNC(=O)C(=O)C(CCCC)NC(=O)[C@@H]1[C@@H]2[C@H](CN1C(=O)[C@@H](NC(=O)N[C@H](CN1CCN(C(C)C)S1(=O)=O)C(C)(C)C)C(C)(C)C)C2(C)C` (stereo partly drawn) [Compound 5205], the Ki is not above 50 nM.
The value for `C=CCNC(=O)C(=O)C(CCCC)NC(=O)[C@@H]1[C@@H]2[C@H](CN1C(=O)[C@@H](NC(=O)NC1(CN3Cc4sccc4S3(=O)=O)CCCCC1)C(C)(C)C)C2(C)C` (stereo partly drawn) [Compound 5206] was not above 50 nM; that for `C=CCNC(=O)C(=O)C(CC1CC1)NC(=O)[C@@H]1[C@@H]2[C@H](CN1C(=O)[C@@H](NC(=O)NC1(CN3Cc4sccc4S3(=O)=O)CCCCC1)C(C)(C)C)C2(C)C` (stereo partly drawn) [Compound 5207] was more than 50 nM; that for `C=CCNC(=O)C(=O)C(CCC)NC(=O)[C@@H]1[C@@H]2[C@H](CN1C(=O)[C@@H](NC(=O)NC1(CN3Cc4sccc4S3(=O)=O)CCCCC1)C(C)(C)C)C2(C)C` (stereo partly drawn) [Compound 5208] was not above 50 nM.
The value for `C#CCCC(NC(=O)[C@@H]1[C@@H]2[C@H](CN1C(=O)[C@@H](NC(=O)NC1(CN3Cc4sccc4S3(=O)=O)CCCCC1)C(C)(C)C)C2(C)C)C(=O)C(=O)NCC=C` (stereo partly drawn) [Compound 5209] was not above 50 nM; that for `CC(C)N1CCN(C[C@@H](NC(=O)N[C@H](C(=O)N2C[C@H]3[C@@H]([C@H]2C(=O)NC(CC2CCC2)C(=O)C(N)=O)C3(C)C)C(C)(C)C)C(C)(C)C)S1(=O)=O` (stereo partly drawn) [Compound 5210] was not above 50 nM; that for `CC(C)(C)[C@H](NC(=O)NC1(CN2Cc3sccc3S2(=O)=O)CCCCC1)C(=O)N1C[C@H]2[C@@H]([C@H]1C(=O)NC(CC1CC1)C(=O)C(N)=O)C2(C)C` (stereo partly drawn) [Compound 5211] was not above 50 nM.
Regarding `CC(C)(C)[C@H](NC(=O)NC1(CN2Cc3sccc3S2(=O)=O)CCCCC1)C(=O)N1C[C@H]2[C@@H]([C@H]1C(=O)NC(CC1CCC1)C(=O)C(N)=O)C2(C)C` (stereo partly drawn) [Compound 5212], the Ki was not above 50 nM.
The value for `C=CCNC(=O)C(=O)C(CC1CC1)NC(=O)[C@@H]1[C@@H]2[C@H](CN1C(=O)[C@@H](NC(=O)N[C@H](CN1CCCNS1(=O)=O)C(C)(C)C)C(C)(C)C)C2(C)C` (stereo partly drawn) [Compound 5213] was more than 50 nM; that for `CCCCC(NC(=O)[C@@H]1[C@@H]2[C@H](CN1C(=O)[C@@H](NC(=O)NC1(CN3Cc4sccc4S3(=O)=O)CCCCC1)C(C)(C)C)C2(C)C)C(=O)C(N)=O` (stereo partly drawn) [Compound 5214] was not above 50 nM; that for `CC(C)(C)[C@H](NC(=O)N[C@H](CN1CCCNS1(=O)=O)C(C)(C)C)C(=O)N1C[C@H]2[C@@H]([C@H]1C(=O)NC(CC1CC1)C(=O)C(N)=O)C2(C)C` (stereo partly drawn) [Compound 5215] was not above 50 nM.
The value for `C=CCNC(=O)C(=O)C(CCC)NC(=O)[C@@H]1[C@@H]2[C@H](CN1C(=O)[C@@H](NC(=O)N[C@H](CN1CCCNS1(=O)=O)C(C)(C)C)C(C)(C)C)C2(C)C` (stereo partly drawn) [Compound 5216] was more than 50 nM; that for `C=CCNC(=O)C(=O)C(CCCC)NC(=O)[C@@H]1[C@@H]2[C@H](CN1C(=O)[C@@H](NC(=O)N[C@H](CN1CCCNS1(=O)=O)C(C)(C)C)C(C)(C)C)C2(C)C` (stereo partly drawn) [Compound 5217] was more than 50 nM.
Turning to `CC(C)N1CCN(C[C@@H](NC(=O)N[C@H](C(=O)N2C[C@H]3[C@@H]([C@H]2C(=O)NC(CC2CC2)C(=O)C(N)=O)C3(C)C)C(C)(C)C)C(C)(C)C)S1(=O)=O` (stereo partly drawn) [Compound 5218], the Ki is not above 50 nM.
Consider `C=CCNC(=O)C(=O)C(CCC)NC(=O)[C@@H]1[C@@H]2[C@H](CN1C(=O)[C@@H](NC(=O)N[C@H](CN1CCN(C(C)C)S1(=O)=O)C(C)(C)C)C(C)(C)C)C2(C)C` (stereo partly drawn) [Compound 5219], for which the Ki is not above 50 nM.
For `CNC(=O)C(=O)C(CC1CC1)NC(=O)[C@@H]1[C@@H]2[C@H](CN1C(=O)[C@@H](NC(=O)N[C@H](CN1CCN(C(C)C)S1(=O)=O)C(C)(C)C)C(C)(C)C)C2(C)C` (stereo partly drawn) [Compound 5220], the Ki was not above 50 nM.
With `C#CCCC(NC(=O)[C@@H]1[C@@H]2[C@H](CN1C(=O)[C@@H](NC(=O)N[C@H](CN1Cc3ccccc3S1(=O)=O)C1CCCCC1)C(C)(C)C)C2(C)C)C(=O)C(=O)NCC=C` (stereo partly drawn) [Compound 5221], the inhibition constant Ki is not above 50 nM.
As for `C=CCNC(=O)C(=O)C(CCCC)NC(=O)[C@@H]1[C@@H]2[C@H](CN1C(=O)[C@@H](NC(=O)N[C@H](CN1Cc3ccccc3S1(=O)=O)C1CCCCC1)C(C)(C)C)C2(C)C` (stereo partly drawn) [Compound 5222], the figure is not above 50 nM; as for `C=CCNC(=O)C(=O)C(CCC)NC(=O)[C@@H]1[C@@H]2[C@H](CN1C(=O)[C@@H](NC(=O)N[C@H](CN1Cc3ccccc3S1(=O)=O)C1CCCCC1)C(C)(C)C)C2(C)C` (stereo partly drawn) [Compound 5223], not above 50 nM.
As for `C=CCNC(=O)C(=O)C(CCC)NC(=O)[C@@H]1[C@@H]2[C@H](CN1C(=O)[C@@H](NC(=O)N[C@H](CN1CCCCS1(=O)=O)C1CCCCC1)C(C)(C)C)C2(C)C` (stereo partly drawn) [Compound 5224], the figure is not above 50 nM.
The value for `C=CCNC(=O)C(=O)C(CCCC)NC(=O)[C@@H]1[C@@H]2[C@H](CN1C(=O)[C@@H](NC(=O)N[C@H](CN1CCCCS1(=O)=O)C1CCCCC1)C(C)(C)C)C2(C)C` (stereo partly drawn) [Compound 5225] was not above 50 nM; that for `CC(C)(C)[C@H](NC(=O)N[C@H](CN1Cc2ccccc2S1(=O)=O)C1CCCCC1)C(=O)N1C[C@H]2[C@@H]([C@H]1C(=O)NC(CC1CC1)C(=O)C(N)=O)C2(C)C` (stereo partly drawn) [Compound 5226] was not above 50 nM; that for `CC(C)(C)[C@H](NC(=O)N[C@H](CN1Cc2ccccc2S1(=O)=O)C1CCCCC1)C(=O)N1C[C@H]2[C@@H]([C@H]1C(=O)NC(CC1CCC1)C(=O)C(N)=O)C2(C)C` (stereo partly drawn) [Compound 5227] was not above 50 nM.
On to `C=CCNC(=O)C(=O)C(CC1CC1)NC(=O)[C@@H]1[C@@H]2[C@H](CN1C(=O)[C@@H](NC(=O)N[C@H](CN1CCCCS1(=O)=O)C1CCCCC1)C(C)(C)C)C2(C)C` (stereo partly drawn) [Compound 5228], for which the Ki is not above 50 nM.
The value for `C#CCCC(NC(=O)[C@@H]1[C@@H]2[C@H](CN1C(=O)[C@@H](NC(=O)N[C@H](CN1CCCCS1(=O)=O)C1CCCCC1)C(C)(C)C)C2(C)C)C(=O)C(=O)NCC=C` (stereo partly drawn) [Compound 5230] was not above 50 nM.
As for `CC(C)(C)[C@H](NC(=O)N[C@H](CN1CCCCS1(=O)=O)C1CCCCC1)C(=O)N1C[C@H]2[C@@H]([C@H]1C(=O)NC(CC1CC1)C(=O)C(N)=O)C2(C)C` (stereo partly drawn) [Compound 5231], the Ki is not above 50 nM.
Consider `CC(C)(C)[C@H](NC(=O)N[C@H](CN1CCCCS1(=O)=O)C1CCCCC1)C(=O)N1C[C@H]2[C@@H]([C@H]1C(=O)NC(CC1CCC1)C(=O)C(N)=O)C2(C)C` (stereo partly drawn) [Compound 5232], for which the Ki was not above 50 nM.
Consider `C=CCNC(=O)C(=O)C(CC1CCC1)NC(=O)[C@@H]1[C@@H]2[C@H](CN1C(=O)[C@@H](NC(=O)N[C@H](CN1CCCCS1(=O)=O)C1CCCCC1)C(C)(C)C)C2(C)C` (stereo partly drawn) [Compound 5234], for which the Ki was more than 50 nM.
The value for `C=CCNC(=O)C(=O)C(CC1CCC1)NC(=O)[C@@H]1[C@@H]2[C@H](CN1C(=O)[C@@H](NC(=O)N[C@H](CN1CCCN(C)S1(=O)=O)C(C)(C)C)C(C)(C)C)C2(C)C` (stereo partly drawn) [Compound 5235] was not above 50 nM; that for `CCCCC(NC(=O)[C@@H]1[C@@H]2[C@H](CN1C(=O)[C@@H](NC(=O)N[C@H](CN1CCCS1(=O)=O)C(C)(C)C)C1CCCCC1)C2(C)C)C(=O)C(=O)NCC` (stereo partly drawn) [Compound 5236] was not above 50 nM; that for `C=CCNC(=O)C(=O)C(CC1CC1)NC(=O)[C@@H]1[C@@H]2[C@H](CN1C(=O)[C@@H](NC(=O)N[C@H](CN1CCN(C(C)C)S1(=O)=O)C(C)(C)C)C(C)(C)C)C2(C)C` (stereo partly drawn) [Compound 5237] was not above 50 nM.
The value for `C=CCNC(=O)C(=O)C(CC1CC1)NC(=O)[C@@H]1[C@@H]2[C@H](CN1C(=O)[C@@H](NC(=O)N[C@H](CN1CCCN(C)S1(=O)=O)C(C)(C)C)C1CCCCC1)C2(C)C` (stereo partly drawn) [Compound 5238] was not above 50 nM; that for `C=CCNC(=O)C(=O)C(CC1CCC1)NC(=O)[C@@H]1[C@@H]2[C@H](CN1C(=O)[C@@H](NC(=O)N[C@H](CN1CCCN(C)S1(=O)=O)C(C)(C)C)C1CCCCC1)C2(C)C` (stereo partly drawn) [Compound 5239] was not above 50 nM.
